Test results published in US11655307B2, “Anti-doublecortin-like kinase 1 antibodies and methods of use” (The Board of Regents of the University of Oklahoma, priority 2017, dated 2023).
Entries after “also recorded” stand apart in the source; their conditions may differ.

How the values were obtained:
[1] = tested on: extracellular DCLK1 on AsPC-1 human pancreatic cancer cells; assay: FACS of live AsPC-1 cells under non-permeabilizing conditions; type: cell-based; details: 10 μg/mL, on ice, FIG. 3
Method: To assess cell cycle status, cells were trypsinized, centrifuged at 4° C., washed with cold PBS, and then fixed in 70% ethanol on ice for >2 h. Following fixation the cells were washed with PBS again and incubated with propidium iodide (50 μg/ml) and treated with RNAse A. In another experiment to analyze the expression of DCLK1, cells were trypsinized, centrifuged, washed, and then 5 μL activated ALDEFLUOR and 5 μL anti-DCLK1 antibody conjugated with respective fluorochromes were added and allowed to incubate for 60 min at 37° C. Following incubation the cells were washed with ALDEFLUOR buffer. Data was collected on FACS Calibur and analyzed in ModFit LT or Flowing Software. To analyze the expression level of ALDH, cells were resuspended in ALDEFLUOR assay buffer containing ALDH substrate, BAA (Bodipy-aminoacetaldehyde) (50 mg dry reagent), with or without 5 ml of the specific ALDH inhibitor diethylaminobenzaldehyde (DEAB 1.5 mM in 95% ethanol stock solution), as a negative control. After 60 mins incubation at 37° C., data was collected by FACS Calibur. For DCLK1 extracellular-domain based cell sorting, cells were trypsinized and washed as described above. After washing cells were incubated with anti-DCLK1 antibody conjugated with fluorochrome for 60 min on ice and sorted using BD Biosciences FACSAria III. Sorted cells were kept on ice and seeded directly into ECM. […]

[2] = tested on: ACHN human renal tumor xenograft; assay: ACHN xenograft tumor study; type: in vivo, mice
Method: ACHN cells (5×10^5) were injected subcutaneously into the flanks of male athymic nude mice and allowed to grow until the tumor reached an average volume of 100 mm^3. Once this volume was reached, CBT-15 mAB or isotype control mAB were delivered intraperitoneally at 25 mg/kg biweekly and tumor volume measurements were taken every other day. Horizontal and vertical tumor diameter was measured on each injection date with calipers and tumor volume was calculated using the formula: tumor volume=0.5×length×width^2. At the end of the injection period mice were killed by CO2 asphyxiation and tumors were excised, weighed, and measured. All animal experiments were performed in accordance with standards set forth by the University of Oklahoma Health Sciences Center's Institutional Animal Care and Use Committee.
0.5×10^6 cells were injected into the flanks of 8 week-old athymic nude mice and the resulting tumors were allowed to grow to an average volume 100 mm^3. Upon reaching this volume we began delivering CBT-15 or isotype control mAB at 25 mg/kg biweekly. Tumor volume measurements were taken approximately every other day. At the end of 4 weeks from the start of injections animals were culled and tumors were excised, measured, and weighed.

[3] = target: T1, DCLK1 isoform 4 purified protein (Homo sapiens, UniProt O15075); assay: Western blotting against purified DCLK1 protein; type: binding; details: FIG. 1
T1 sequence (O15075 1-433 isoform O15075-4): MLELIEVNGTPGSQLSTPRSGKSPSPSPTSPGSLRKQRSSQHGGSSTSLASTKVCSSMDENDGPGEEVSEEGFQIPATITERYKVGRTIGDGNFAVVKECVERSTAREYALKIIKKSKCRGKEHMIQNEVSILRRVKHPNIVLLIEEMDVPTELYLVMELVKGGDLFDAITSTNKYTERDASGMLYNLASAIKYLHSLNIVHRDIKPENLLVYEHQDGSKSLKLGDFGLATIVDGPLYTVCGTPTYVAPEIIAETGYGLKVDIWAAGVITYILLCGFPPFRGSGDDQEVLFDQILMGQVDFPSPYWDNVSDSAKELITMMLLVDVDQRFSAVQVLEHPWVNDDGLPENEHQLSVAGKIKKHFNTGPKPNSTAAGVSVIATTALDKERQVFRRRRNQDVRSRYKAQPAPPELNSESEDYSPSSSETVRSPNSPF
Method: (§1) Lysates from ACHN or CAKI2 cells were subjected to Western blot analysis. The concentration of total proteins was determined by BCA protein assay (Pierce, Rockford, Ill.). 40 μg of protein lysates were size separated on a 4%-20% SDS polyacrylamide gel and transferred onto a PVDF membrane. The membrane was blocked in 1% caseine for 30 minutes and probed with primary antibody α-DCLK1 (ABCAM, ab31704), HIF-1α (ABCAM, ab2185), Vimentin (Santa Cruz, S.C.-7557), ALDH1A1 (ABCAM, ab52492), β-Actin (ABCAM, ab8226) overnight at 4° C. The membrane was then washed 3 times with TBST and probed with species-appropriate secondary antibody (cw800-conjugated) for 30 mins at room temperature protected from light. Finally, proteins were detected using a LICOR Odyssey Infrared Imager and density quantification was performed in Image Studio Lite (LICOR) where appropriate.
The resulting monoclonal antibodies produced from this screening process included an Immunoglobulin A species (CBT-15A) and an Immunoglobulin G213 species (CBT-15G). Following purification of the resulting antibodies, their affinity for DCLK1 was confirmed by Western blotting against DCLK1 isoform 4 purified protein (FIG. 1). […] The ability of these antibodies to bind extracellular DCLK1 was further apparent in FACS sorting experiments. […]

[4] = tested on: PD-L1; assay: Western blot of PD-L1 protein expression in RCC cells; type: cell-based, human; details: ACHN and Caki-2 RCC cells; 72 h, 100 μg/mL antibody; FIG. 23
Method: as §1
(§2) Given our tissue microarray data, the hypothesized link between immune checkpoint and cancer stem cells, and emerging data linking immune checkpoint to the EMT-phenotype supported by DCLK1, we evaluated whether targeted DCLK1 knockdown may sensitize RCC to immunotherapy.

[5] = tested on: ACHN cells; assay: In vitro PBMC-killing assay (Caspase-3/7 Glo), renal cancer cells; type: cell-based; details: antibody pretreatment, then 72 h co-culture with human PBMC; FIG. 24A
Method: ACHN cells were seeded into a 96-well plate at 5×10^4 cells per well and allowed to attach overnight at 37° C. CBT-15 mAB or isotype control mAB were added to the ACHN wells at concentrations of 100 μg/mL in quadruplicate and incubated at 37° C. for 72 h. After mAB treatment, the media was replaced and 1.25×10^5 primary human PBMC cells (ATCC) were co-incubated with the ACHN cells for 72 h. Finally, luminescent CaspaseGlo® 3/7 activity (Promega) assay was performed according to the manufacturer's protocol as a surrogate measure of apoptosis.
To further assess the functional relevance of these findings we seeded ACHN renal and AsPC-1 pancreatic cancer cells into 96 wells and subjected them to antibody-dependent cell-mediated cytotoxicity assay. Briefly, 10^4 cancer cells were seeded into each well after 48 hours pretreatment with either isotype control or CBT-15 monoclonal antibody. Human peripheral blood […] were then seeded into each well at 10^5 cells per well and co-cultured for 72 h. After 72 h Caspase-3/7 Glo assay was performed to assess apoptosis.

[6] = tested on: CTLA4; assay: Western blot of CTLA4 protein expression in RCC cells; type: cell-based, human; details: ACHN and Caki-2 RCC cells; 72 h, 100 μg/mL antibody; data not shown
Method: as §1, §2

B1: CBT-15A: Anti-DCLK1 mouse monoclonal antibody, Immunoglobulin A species, raised against immunogen no. 8 (SEQ ID NO:10); VH SEQ ID NO:14, VL SEQ ID NO:16 (antibody, V domains shown)
VH: DVKLVESGGGLVKLGGSLKLSCAASGFTFSSYYMSWVRQTPEKRLELVAAINSNGGSTYYPDTVKGRFTISRDNAKNTLYLQMSSLKSEDTALYYCARHGGNYWYFDVWGAGTTVTVSS
VL: DIVMSQSPSSLAVSVGEKVTMS[about 80 residues cut from this listing]FGGGTKLEIK
modifications: HC variable AA sequence of CBT-15A; LC variable AA sequence of CBT-15A
B1 was tested, and the “detection/sorting of extracellular DCLK1+ subpopulation (FACS)” value [1] was “could sort the live extracellular DCLK1+ population”, the “excised tumor volume vs isotype mAB” value ([2]; 25 mg/kg biweekly, end of treatment, FIG. 26, p<0.001) was “significant decrease” and the “excised tumor weight vs isotype mAB” value ([2]; 25 mg/kg biweekly, end of treatment, FIG. 27, p<0.01, p<0.001) was “significant decrease”. For the same molecule, the “xenograft tumor growth (tumor volume over time) vs isotype mAB” value ([2]; athymic nude mice, 25 mg/kg biweekly i.p., 4 weeks, FIG. 25, p<0.03, 25 mg/kg) was “strongly inhibited; also recorded: substantially reduced”, the “affinity for DCLK1 by Western blot (detection of purified DCLK1 protein)” value [3] was “confirmed; also recorded: detect” and the “protein level expression of PD-L1” value [4] was “significantly decreased; also recorded: partially downregulate”. For the same molecule, the “PBMC mediated apoptosis, Caspase-3/7 activity relative to isotype control” value [5] was “significantly increased; also recorded: can sensitize; also recorded: sensitizes” and the “protein level expression of CTLA4” value [6] was “no effect”.
